About 14,000 (4.5%) of roughly 310,000 compounds showed an effect of 50% or more. The effect is printed as a negative number. This is one part of the list.
molecular target: human ether-à-go-go-related gene (hERG) potassium channel (human, UniProt Q12809); assay: primary screen, population patch clamp on CHO cells stably expressing hERG
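Note: peak tail current of the secondary pulse compared with the same well before compound.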

human ether-à-go-go-related gene (hERG) potassium channel, sequence (Q12809 whole entry, looked up): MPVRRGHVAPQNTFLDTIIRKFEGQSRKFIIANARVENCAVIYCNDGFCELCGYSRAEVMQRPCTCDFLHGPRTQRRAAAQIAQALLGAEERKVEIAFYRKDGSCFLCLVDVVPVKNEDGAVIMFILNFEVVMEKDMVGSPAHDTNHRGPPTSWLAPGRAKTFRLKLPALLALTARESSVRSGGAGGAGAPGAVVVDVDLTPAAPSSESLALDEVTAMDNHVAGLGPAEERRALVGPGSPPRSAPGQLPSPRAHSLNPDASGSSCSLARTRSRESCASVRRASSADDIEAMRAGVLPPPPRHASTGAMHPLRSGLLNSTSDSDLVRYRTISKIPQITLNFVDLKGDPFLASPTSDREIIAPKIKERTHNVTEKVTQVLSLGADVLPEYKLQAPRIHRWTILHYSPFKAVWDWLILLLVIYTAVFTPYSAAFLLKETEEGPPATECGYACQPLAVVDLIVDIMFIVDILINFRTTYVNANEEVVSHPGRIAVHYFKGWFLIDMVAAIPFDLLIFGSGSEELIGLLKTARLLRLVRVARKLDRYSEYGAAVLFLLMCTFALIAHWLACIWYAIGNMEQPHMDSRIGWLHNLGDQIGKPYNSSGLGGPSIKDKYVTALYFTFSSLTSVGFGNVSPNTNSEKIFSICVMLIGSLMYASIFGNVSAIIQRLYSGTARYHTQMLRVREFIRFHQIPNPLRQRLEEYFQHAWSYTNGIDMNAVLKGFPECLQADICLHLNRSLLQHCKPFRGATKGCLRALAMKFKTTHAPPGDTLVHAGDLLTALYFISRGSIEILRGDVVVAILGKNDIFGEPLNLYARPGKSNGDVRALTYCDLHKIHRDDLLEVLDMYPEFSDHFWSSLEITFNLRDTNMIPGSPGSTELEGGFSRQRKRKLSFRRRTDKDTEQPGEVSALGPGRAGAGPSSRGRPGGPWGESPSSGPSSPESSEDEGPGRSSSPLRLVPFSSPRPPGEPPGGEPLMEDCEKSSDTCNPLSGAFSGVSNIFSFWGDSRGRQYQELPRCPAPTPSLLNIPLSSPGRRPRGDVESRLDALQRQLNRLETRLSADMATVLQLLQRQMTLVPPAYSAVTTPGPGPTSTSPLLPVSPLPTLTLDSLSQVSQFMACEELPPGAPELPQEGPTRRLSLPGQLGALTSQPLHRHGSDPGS

**Q.** How did the “hERG current change (%, negative = inhibition) at 10uM” value turn out when CC(/C=C1\SC(=S)N(NC(=O)c2ccc(C)cc2)C1=O)=C\c1ccccc1 was run?
**A.** 6.71%

**Q.** For CCC(=O)Nc1cccc(C(=O)c2ccc(C)c(C)c2)c1, which “hERG current change (%, negative = inhibition) at 10uM” value is on record?
**A.** -11.6%

**Q.** For COC(=O)CCCC1=CC2=C(c3ccccc3)C(=O)C(C)(OC(=O)C3CCCC3)C(=O)C2=CN1CCc1c[nH]c2ccccc12 (centres unmarked), which “hERG current change (%, negative = inhibition) at 10uM” value is on record?
**A.** 3.36%

**Q.** With CCc1ccc(CNC(=O)c2ccc(OC)c(OC3CCN(C(C)C)CC3)c2)nc1 as the molecule, how does the “hERG current change (%, negative = inhibition) at 10uM” value read?
**A.** -7.31%

**Q.** For Cc1ccc(NC(=O)C2COc3ccccc3O2)c(C)c1 (centres unmarked), which “hERG current change (%, negative = inhibition) at 10uM” value is on record?
**A.** 14.2%

**Q.** With Cc1c(Cl)cccc1NC(=O)C(=O)NNS(=O)(=O)c1ccc(F)cc1 as the molecule, how does the “hERG current change (%, negative = inhibition) at 10uM” value read?
**A.** 10.9%

**Q.** Which “hERG current change (%, negative = inhibition) at 10uM” value does the source give for O=S(=O)(c1cc(F)ccc1F)N1CCC2(CC1)OCCN2S(=O)(=O)c1cccs1 here?
**A.** -12.7%

**Q.** For COC(=O)c1ccc(COc2ccc(/C=N/NC(=O)C(=O)Nc3ccc(OC)cc3)cc2OC)o1, which “hERG current change (%, negative = inhibition) at 10uM” value is on record?
**A.** 8.1%

**Q.** With CN(C)c1ccc(/C=N\NC(=O)c2ccc(Cn3cc(Cl)cn3)cc2)cc1 as the molecule, how does the “hERG current change (%, negative = inhibition) at 10uM” value read?
**A.** -1.4%

**Q.** Which “hERG current change (%, negative = inhibition) at 10uM” value does the source give for COc1cc(OC)c(NS(=O)(=O)c2c(C)[nH]c(=O)[nH]c2=O)cc1Cl here?
**A.** 20%

**Q.** Which “hERG current change (%, negative = inhibition) at 10uM” value does the source give for COc1ccccc1NC(=O)COC(=O)COc1ccccc1F here?
**A.** -0.741%

**Q.** With Cc1ccccc1CC1(CO)CCCN(C(=O)c2cc(Cl)ccc2F)C1 (centres unmarked) as the molecule, how does the “hERG current change (%, negative = inhibition) at 10uM” value read?
**A.** -16.5%

**Q.** Which “hERG current change (%, negative = inhibition) at 10uM” value does the source give for COCCCn1c(-c2ccccc2Cl)n[nH]c1=S here?
**A.** 19.5%

**Q.** How did the “hERG current change (%, negative = inhibition) at 10uM” value turn out when COc1ccccc1NC(=O)NC1CC(=O)N(c2ccc3c(c2)OCCO3)C1 (centres unmarked) was run?
**A.** -9.02%

**Q.** For Cc1ccc(S(=O)(=O)Nc2ccnc3ccccc23)cc1, which “hERG current change (%, negative = inhibition) at 10uM” value is on record?
**A.** -4.28%

**Q.** For CCCCn1c(N)c(Sc2ccc(Cl)cc2)c(=O)[nH]c1=O, which “hERG current change (%, negative = inhibition) at 10uM” value is on record?
**A.** -18.8%

**Q.** For Cc1ccc(CNC(=O)c2ccc(Cn3cc(-c4ccc(C)cc4)nc3-c3ccncc3)cc2)cc1, which “hERG current change (%, negative = inhibition) at 10uM” value is on record?
**A.** 5.94%

**Q.** How did the “hERG current change (%, negative = inhibition) at 10uM” value turn out when COc1ccc(C2=NN(C(=O)c3ccncc3)C(c3ccccc3O)C2)cc1 (centres unmarked) was run?
**A.** -10.4%

**Q.** With Cc1cc(OCC(=O)Nc2ccncc2)ccc1[N+](=O)[O-] as the molecule, how does the “hERG current change (%, negative = inhibition) at 10uM” value read?
**A.** -41.4%

**Q.** How did the “hERG current change (%, negative = inhibition) at 10uM” value turn out when Cc1cccc(Cl)c1OCCN1CCCC1.O=C(O)C(=O)O was run?
**A.** -13.3%

**Q.** With CCC1SC2=NC(C)=C(C(=O)OC)C(c3ccc(C)cc3)N2C1=O (centres unmarked) as the molecule, how does the “hERG current change (%, negative = inhibition) at 10uM” value read?
**A.** 1.17%

**Q.** CCC(C)C(NC(=O)c1ccccc1NC(=O)c1ccco1)C(=O)NNC(=O)c1ccc(OC)cc1 (centres unmarked) was tested. Which “hERG current change (%, negative = inhibition) at 10uM” value did it give?
**A.** 3.97%

**Q.** Which “hERG current change (%, negative = inhibition) at 10uM” value does the source give for C=CCN(c1ccc(C(=O)N2CCCC2)cc1)S(C)(=O)=O here?
**A.** -2.5%

**Q.** How did the “hERG current change (%, negative = inhibition) at 10uM” value turn out when CC(=NC1CCN(Cc2ccccc2)CC1)c1c(O)n(C)c(=O)n(C)c1=O was run?
**A.** -39.1%

**Q.** For CC(=O)c1cccc(Nc2nc(-c3cccc([N+](=O)[O-])c3)cs2)c1.Cl, which “hERG current change (%, negative = inhibition) at 10uM” value is on record?
**A.** 0.359%

**Q.** For CCOc1ccc(N(Cc2ccc(OC)c(OC)c2)C(=O)c2ccco2)cc1, which “hERG current change (%, negative = inhibition) at 10uM” value is on record?
**A.** -2.67%

**Q.** With Cc1nn(CC(=O)NC(=O)NC2CCCC(C)C2C)c(=O)c(C#N)c1C (centres unmarked) as the molecule, how does the “hERG current change (%, negative = inhibition) at 10uM” value read?
**A.** -11.6%

**Q.** With COC(=O)c1ccc(/C=N/N2CCN(Cc3ccc(C)cc3C)CC2)cc1 as the molecule, how does the “hERG current change (%, negative = inhibition) at 10uM” value read?
**A.** 5.11%

**Q.** With Cc1ccccc1C1CC(c2cccs2)Nc2nnnn21 (centres unmarked) as the molecule, how does the “hERG current change (%, negative = inhibition) at 10uM” value read?
**A.** -7.42%

**Q.** How did the “hERG current change (%, negative = inhibition) at 10uM” value turn out when Cc1cccc(NC(=S)NN2CCN(C)CC2)c1C was run?
**A.** 8.29%

**Q.** How did the “hERG current change (%, negative = inhibition) at 10uM” value turn out when CCOC(=O)c1cnc(Cc2ccccc2)[nH]c1=O was run?
**A.** 9.93%

**Q.** How did the “hERG current change (%, negative = inhibition) at 10uM” value turn out when COc1cccc(C(=O)NCCNC(=O)c2ccccn2)c1 was run?
**A.** 13.1%

**Q.** For Cc1ccc2nnc(Cl)n2n1, which “hERG current change (%, negative = inhibition) at 10uM” value is on record?
**A.** 12.9%

**Q.** CCOc1cc(/C=N/NC(=O)Cn2nc([N+](=O)[O-])cc2C)cc(Br)c1OCc1ccccc1C was tested. Which “hERG current change (%, negative = inhibition) at 10uM” value did it give?
**A.** 10%

**Q.** How did the “hERG current change (%, negative = inhibition) at 10uM” value turn out when C=CCn1c(Oc2cc(C)ccc2C)nc2c1c(=O)n(C)c(=O)n2C was run?
**A.** -14%

**Q.** Which “hERG current change (%, negative = inhibition) at 10uM” value does the source give for COc1ccc(/C=C(\C#N)C(=O)NC(C)c2ccccc2)cc1O (centres unmarked) here?
**A.** -24.2%

**Q.** How did the “hERG current change (%, negative = inhibition) at 10uM” value turn out when CC(=O)NS(=O)(=O)c1ccc(NC(=O)c2ccccc2F)cc1 was run?
**A.** -3.06%

**Q.** For COc1ccc(-c2cc3cc(OC)c(OC)cc3c(C)n2)cc1, which “hERG current change (%, negative = inhibition) at 10uM” value is on record?
**A.** 18.1%

**Q.** Which “hERG current change (%, negative = inhibition) at 10uM” value does the source give for CCC1CCc2sc(C(=O)NNC(=S)NCC3CCCO3)cc2C1 (centres unmarked) here?
**A.** 24.1%

**Q.** With CCOC(=O)/C(=N\Nc1cccc(Cl)c1)Sc1nnc(-c2ccc(OC)cc2)n1C as the molecule, how does the “hERG current change (%, negative = inhibition) at 10uM” value read?
**A.** -24.4%

**Q.** How did the “hERG current change (%, negative = inhibition) at 10uM” value turn out when O=C(O)CCN1C(=O)c2ccc(NC(=O)c3cccs3)cc2C1=O was run?
**A.** 10.7%

**Q.** Which “hERG current change (%, negative = inhibition) at 10uM” value does the source give for C/C(=N\NC(=S)NCC(C)(C)C)c1cc(F)cc(F)c1O here?
**A.** 17.2%

**Q.** For Cc1ccc(S(=O)(=O)N(C)C)cc1NC(=O)COC(=O)CC1CCCC1, which “hERG current change (%, negative = inhibition) at 10uM” value is on record?
**A.** -74.2%

**Q.** Cc1c(C=O)c(Cl)n(C)c(=O)c1C#N was tested. Which “hERG current change (%, negative = inhibition) at 10uM” value did it give?
**A.** 22.6%

**Q.** Which “hERG current change (%, negative = inhibition) at 10uM” value does the source give for CCOC(=O)C1CCCN(C(=O)C2CCCN(S(=O)(=O)c3ccc4c(c3)oc(=O)n4C)C2)C1 (centres unmarked) here?
**A.** -22.8%

**Q.** With Cc1nc(=O)c(-c2ccccc2)c(C)n1Cc1ccccc1 as the molecule, how does the “hERG current change (%, negative = inhibition) at 10uM” value read?
**A.** 10.4%

**Q.** Which “hERG current change (%, negative = inhibition) at 10uM” value does the source give for Cn1ncc(Br)c1C(=O)N1CCc2ccccc21 here?
**A.** 1.62%

**Q.** For COc1cc(OC)cc(C(=O)OCC(=O)c2ccc(S(=O)(=O)N3CCCCC3)cc2)c1, which “hERG current change (%, negative = inhibition) at 10uM” value is on record?
**A.** -7.77%

**Q.** With Cc1ccc2oc3c(c(=O)c2c1)C(c1cccc(O)c1)N(c1ccccn1)C3=O (centres unmarked) as the molecule, how does the “hERG current change (%, negative = inhibition) at 10uM” value read?
**A.** 6.49%

**Q.** C=CCNC(=O)c1ccc(CN(c2ccc(OCC)cc2)S(=O)(=O)c2ccc(C)cc2)cc1 was tested. Which “hERG current change (%, negative = inhibition) at 10uM” value did it give?
**A.** -62%

**Q.** How did the “hERG current change (%, negative = inhibition) at 10uM” value turn out when C=CCn1c(COc2cccc3cccnc23)nnc1SCC(=O)O was run?
**A.** 12.7%

**Q.** With Cc1c(C)n(CCCN(C)C)c2ncnc(NC3CCCCC3)c12 as the molecule, how does the “hERG current change (%, negative = inhibition) at 10uM” value read?
**A.** -37.7%

**Q.** CCOc1ccc(S(=O)(=O)Oc2ccc3ccccc3c2)cc1 was tested. Which “hERG current change (%, negative = inhibition) at 10uM” value did it give?
**A.** 9.44%

**Q.** How did the “hERG current change (%, negative = inhibition) at 10uM” value turn out when O=C(NC1CCCCCC1)C1CC(=O)N(c2ccc(Cl)cc2)C1 (centres unmarked) was run?
**A.** 1.66%

**Q.** Which “hERG current change (%, negative = inhibition) at 10uM” value does the source give for C/C(=N/NC(=O)CNC(=O)C1COc2ccccc2O1)c1ccc2c(c1)OCCO2 (centres unmarked) here?
**A.** -1.69%

**Q.** For CCOC(=O)C1CCN(c2ncnc3c2[nH]c2cccc(OC)c23)CC1, which “hERG current change (%, negative = inhibition) at 10uM” value is on record?
**A.** -0.393%
